Test results taken from PubChem BioAssay AID686979 (National Center for Advancing Translational Sciences (NCATS), 2013).
About 50,000 (12%) of roughly 420,000 compounds were called active. Inconclusive means that the source gave no clear call. Such entries were picked first, then a sample of the others. Calls follow the shape of the dose curve; as a rule, active = well fitted inhibition curve with a large enough effect; inconclusive = small, poorly fitted or top-dose-only effect; inactive = flat fitted curve, though single readings scatter. No potency is given beside an inconclusive call; the fits are too rough.

Experiment: qHTS for Inhibitors of human tyrosyl-DNA phosphodiesterase 1 (TDP1): qHTS in cells in presence of CPT; also: nearly all actives have a fitted effect of over 55% in size
Conditions: chicken DT40 Tdp1-/-;hTDP1 cells + 20 nM CPT, ATP luminescence, 48 h; activity change, negative = growth inhibition: at 46.2 µM (top of the series) unless noted
Procedure, shortened: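 Chicken DT40 Tdp1-/- cells complemented with human TDP1, 400 cells/well, exposed to compounds plus 20 nM camptothecin for at least 48 h at 37 C; viability read as ATP content by CellTiter-Glo luminescence.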
% is scaled to controls: 0 for no effect and ±100 for the full control effect; potency is read from the fitted curve at half-maximal effect; tags tell the direction and shape of the fitted curve.

Row | Compound | Potency | activity change, negative = growth inhibition
1 | CC(=O)c1ccc(Nc2nc(C(N)c3ccccc3Cl)cs2)cc1 (configuration not stated) | active: 14.6 µM | –
2 | N#CC1=C(N)Oc2n[nH]c(-c3cccs3)c2C1C1CCCCC1 (configuration not stated) | inconclusive [inhibitor, single point] | –
3 | O=C(Nc1ccc(F)cc1)c1ccc(Cn2nc(N3CCN(c4ccccc4)CC3)ccc2=O)o1 | inconclusive [inhibitor, single point] | –
4 | CCCCC(=O)Nc1c(-c2cccc(OC)c2)c(=O)c2ccccc2n1C | – | inactive: -2.91%
5 | O=C(CNC(=O)c1nc[nH]c1C(=O)N1CCc2ccccc2C1)OCc1ccccc1 | inconclusive [inhibitor, single point] | –
6 | O=C(c1cscn1)N1CCOc2ccc(CN3CCC(Oc4cccnc4)CC3)cc2C1 | inconclusive [inhibitor, full curve, poor fit] | –
7 | CCC(C)(C)n1nnnc1C(c1cc2ccc(OC)cc2[nH]c1=O)N1CCc2ccccc2C1 (configuration not stated) | inconclusive [inhibitor, single point] | –
8 | CCc1cccc(NC(=O)C2CCCN2S(=O)(=O)c2ccc3c(c2)CC(C)N3C(C)=O)c1 (configuration not stated) | inconclusive [inhibitor, single point] | –
9 | CCN(CC)C(=O)CSc1nnc(CNc2ccc(F)cc2)n1-c1ccccc1 | – | inactive: -19.6%
10 | CC1(C(=O)Nc2cnc3ccccc3c2)CCN1C(=O)CC(c1ccccc1)c1ccccc1 (configuration not stated) | inconclusive [inhibitor, single point] | –
11 | COc1ccc(C2C(C(C)=O)=C(C)N=c3s/c(=C\c4cc(C)n(C)c4C)c(=O)n32)c(OC)c1 (configuration not stated) | inconclusive [inhibitor, partial curve, poor fit] | –
12 | O=C(CN1CCN(C(=O)N2CCCCC2)CC1)Nc1ccc(F)cc1 | – | inactive: -9.07%
13 | COc1ccc(-c2cccc(NC(=O)c3cccs3)c2)nn1 | inconclusive [inhibitor, single point] | –
14 | O=C(CN1c2ccccc2Sc2ccccc21)N/N=C/c1ccc(Cl)cc1 | inconclusive [inhibitor, single point] | –
15 | O=c1c2ccc(Cl)cc2nc2n1CC/C2=C\c1cccc(O)c1 | inconclusive [inhibitor, single point] | –
16 | COC(=O)c1cc(S(=O)(=O)NCCc2ccc(C)cc2)c[nH]1 | inconclusive [inhibitor, partial curve, poor fit] | –
17 | Cc1ccc(SC(C)c2nc(-c3ccncc3)no2)cc1 (configuration not stated) | inconclusive [inhibitor, partial curve, poor fit] | –
18 | Cc1ccc(-n2nc3c(=O)n(CC(=O)NCc4ccc(C)o4)nc(C)c3c2C)cc1 | – | inconclusive: -30.4% [inhibitor]
19 | COc1ccc(CCNc2nc(-c3ccc(Cl)cc3)cc(C(F)(F)F)n2)cc1OC | active: 23.1 µM | –
20 | Cc1ccc(O)c(-c2cc(-c3ccccc3[N+](=O)[O-])[nH]n2)c1 | – | inactive: -4.2%
21 | O=[N+]([O-])CC(c1ccc(F)cc1)c1c[nH]c2ccccc12 (configuration not stated) | active: 7.31 µM | –
22 | COC(=O)Cn1c(C(=O)N(C)C)cc2c1C[C@H]1CN(C(=O)c3ccccc3)[C@@](Cc3ccc(F)cc3)(C(=O)OC)[C@@H]21 | inconclusive [inhibitor, single point] | –

Row | Compound | Potency | activity change, negative = growth inhibition
23 | COc1cccc(-c2cc(C(=O)N3CCN(c4ccccc4OC)CC3)no2)c1 | inconclusive [inhibitor, single point] | inconclusive: -32.5% [inhibitor]
24 | Cc1ccc(OCCNC(=O)c2ccccc2O)cc1 | inconclusive [inhibitor, single point] | –
25 | CCCCn1c(-c2ccco2)nc2ccccc2c1=O | inconclusive [inhibitor, single point] | –
26 | Cc1ccc2c(c1)N(C(=O)CCC(=O)N1CCN(c3ccccn3)CC1)CC(C)O2 (configuration not stated) | inconclusive [inhibitor, single point] | –
27 | COc1ccc(N2CCN(C(=O)COC(=O)[C@@H](NC(=O)c3ccccc3Cl)C(C)C)CC2)cc1 | inconclusive [inhibitor, single point] | –
28 | COc1ccc(-c2cc(C(=O)N3CC(C)CC(C)C3)c3ccccc3n2)cc1 (configuration not stated) | inconclusive [inhibitor, single point] | –
29 | Cn1c(=O)c2c(nc(CN3CCN(C(=O)c4ccco4)CC3)n2CCc2ccccc2)n(C)c1=O | – | inactive: -16.5%
30 | COc1ccc(OC)c(CC(=O)N2CCc3cc(OC)c(OC)cc3C2)c1 | active: 0.13 µM | –
31 | O=S(=O)(c1c(F)cccc1F)N1CCN(C(=S)NCc2ccc3c(c2)OCO3)CC1 | inconclusive [inhibitor, single point] | –
32 | Cc1ccc(-c2nc(NC(=O)CSc3ncn[nH]3)ns2)cc1 | inconclusive [inhibitor, single point] | –
33 | COc1ccc(Cl)cc1NC(=O)Cc1coc2c(C)c(C)ccc12 | inconclusive [inhibitor, single point] | –
34 | CCc1ccc(NC(=O)c2sc3nc4c(cc3c2N)CN(CC)CC4)cc1 | active: 23.1 µM | –
35 | c1ccc(Cn2c[n+](Cc3ccccc3)c3ccccc32)cc1 | active: 3.26 µM | –
36 | Cc1cccc(COc2ccccc2C(=O)NC2CCC(O)CC2)c1 (configuration not stated) | inconclusive [inhibitor, single point] | –
37 | Cc1cccc(CSc2nc(N)c(C#N)c(-c3cccs3)c2C#N)c1 | inconclusive [inhibitor, single point] | –
38 | Cc1cccc(C)c1OCC(=O)OC/C(O)=C(\C#N)c1nc2ccccc2[nH]1 | inconclusive [inhibitor, single point] | –
39 | Cc1cc2ncn(CCC(=O)NC(C)(C)C)c2cc1C | – | inactive: 13.6%
40 | Cc1ccc(S(=O)(=O)N2CCCC(C(=O)NC3CCCC3)C2)cc1Cl (configuration not stated) | inconclusive [inhibitor, single point] | –
41 | CCc1ccc2[nH]c(=O)c(CN(CC3CCCO3)C(=S)NCc3ccco3)cc2c1 (configuration not stated) | active: 20.6 µM | –
42 | NNC(=O)CCN1CCN(C(c2ccccc2)c2ccccc2)CC1 | inconclusive [inhibitor, partial curve] | –
43 | NC(=O)c1ccccc1Nc1nc2nc3ccccc3c(=O)n2cc1Br | inconclusive [inhibitor, single point] | –
44 | Cc1ccccc1NC(=O)c1ccc(-n2cncn2)nc1 | – | inactive: -12%

Row | Compound | Potency | activity change, negative = growth inhibition
45 | NC(=O)CC(NC(=O)Cc1ccc(Br)cc1)c1ccc(N2CCCCCCC2)c([N+](=O)[O-])c1 (configuration not stated) | inconclusive [inhibitor, single point] | –
46 | COc1ccc(CN2C(=O)C(C)Nc3ncnc(N4CCc5ccccc5C4)c32)cc1 (configuration not stated) | active: 4.61 µM | –
47 | CCC(C)(C)n1nnnc1C(c1ccc(O)c(OC)c1)N1CCN(c2nc3ccccc3s2)CC1 (configuration not stated) | inconclusive [inhibitor, single point] | –
48 | O=C(Nc1cccc2ccccc12)N1CCN(Cc2ccccc2)CC1 | – | inactive: -28.2%
49 | COc1ccccc1C(=O)NC(=S)Nc1ccc(N2CCOCC2)cc1 | – | inactive: -15.4%
50 | Brc1ccc2ncnc(Nc3cccc4ccccc34)c2c1 | inconclusive [inhibitor, partial curve] | –
51 | Cc1cccc(C)c1-n1nnnc1C1(Nc2ccccc2)CCCCC1 | inconclusive [inhibitor, partial curve] | –
52 | O=C(Nc1ccc(C(=O)N2CCOCC2)cc1)C1CC1 | – | inactive: -12.7%
53 | C=CCOc1ccc(C2NC(=S)NC(C)=C2C(=O)c2ccccc2)cc1OC (configuration not stated) | inconclusive [inhibitor, partial curve, poor fit] | –
54 | CN(C)CCNc1ncnc2oc(-c3ccccc3)c(-c3ccccc3)c12 | – | inconclusive: -34.8% [inhibitor]
55 | CCCC(C)c1nnc(NC(=O)C2CC(=O)N(c3ccc(OCC)cc3)C2)s1 (configuration not stated) | inconclusive [inhibitor, partial curve, poor fit] | –
56 | O=C(NC1CC1)C1=C[C@H](c2ccccc2)C[C@H](OCc2ccc(CO)cc2)O1 | inconclusive [inhibitor, single point] | –
57 | CC(C)(C)c1ccc(S(=O)(=O)NC(=O)C2(C)CCN2C(=O)C2(c3ccc(Cl)cc3)CC2)cc1 (configuration not stated) | inconclusive [inhibitor, single point] | –
58 | CCC(CC)C(=O)Nc1nc(-c2ccc3c(c2)CCN3C(=O)C2CC2)c(C)s1 | inconclusive [inhibitor, single point] | –
59 | Cc1nc2scc(-c3ccc(C(C)C)cc3)c2c(=O)n1N | inconclusive [inhibitor, single point] | –
60 | O=C(c1ccccc1)c1cccn1CC(=O)N1CCN(c2ccccc2)CC1 | inconclusive [inhibitor, single point] | –
61 | COc1ccc(N2C(=O)c3ccccc3NC2c2ccc(OC)c(Cn3nnc4ccccc43)c2)cc1 (configuration not stated) | inconclusive [inhibitor, single point] | –
62 | CC(C)[C@H](NC(=O)c1ccc(F)cc1)C(=O)N(C)Cc1cccs1 | – | inactive: -22.3%
63 | O=c1c2ccccc2[nH]c(=S)n1-c1cccc(S(=O)(=O)N2CCCC2)c1 | inconclusive [inhibitor, partial curve, poor fit] | –
64 | CCc1ccc(NC(=O)C2CCN(c3ncnc4c3nc3n4CCCCC3)CC2)cc1 | inconclusive [inhibitor, single point] | –
65 | CC1CCCCC1NC(=O)COc1ncnc2sccc12 (configuration not stated) | – | inactive: 0.307%
66 | Cc1cc([N+](=O)[O-])ccc1NC(=O)c1sc2ncn(CC(=O)N3CCOCC3)c(=O)c2c1C | inconclusive [inhibitor, partial curve, poor fit] | –
